From PubChem BioAssay AID1347165 (National Center for Advancing Translational Sciences (NCATS), 2019)
The whole screen tested about 220,000 compounds, of which about 5,700 (2.6%) were called active. The shares of active, inactive and inconclusive entries below differ from those in the screen. Calls follow the shape of the dose curve; as a rule, active = well fitted inhibition curve with a large enough effect; inconclusive = small, poorly fitted or top-dose-only effect; inactive = no such curve, though single readings can be large or run the other way. Where the call is inconclusive, the potency comes from a doubtful curve fit.

Target: Lysine-specific demethylase 5B (Homo sapiens) (UniProt Q9UGL1)
Experiment: Primary screen for KDM5B Histone Demethylases FDH-coupled qHTS; also: nearly all actives have a fitted effect of over 70% in size; as to activity change, negative = inhibition: 0% is about no effect
Conditions: FDH-coupled NADH fluorescence (FDH is formaldehyde dehydrogenase); activity change, negative = inhibition: at 57.7 µM (top of the series) unless noted
How it was run: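 Inhibition is measured as reduced NADH fluorescence generation from FDH coupling to formaldehyde release. Truncated KDM5BΔAP at 200 nM final acts on H3K4me3 peptide (12.5 µM in substrate mix) in pH 7.5 HEPES buffer with Tween-20, 30 min, room temperature.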
Potency is read from the fitted curve at half-maximal effect; tags tell the direction and shape of the fitted curve.

UniProt Q9UGL1, sequence (Q9UGL1 whole entry, looked up): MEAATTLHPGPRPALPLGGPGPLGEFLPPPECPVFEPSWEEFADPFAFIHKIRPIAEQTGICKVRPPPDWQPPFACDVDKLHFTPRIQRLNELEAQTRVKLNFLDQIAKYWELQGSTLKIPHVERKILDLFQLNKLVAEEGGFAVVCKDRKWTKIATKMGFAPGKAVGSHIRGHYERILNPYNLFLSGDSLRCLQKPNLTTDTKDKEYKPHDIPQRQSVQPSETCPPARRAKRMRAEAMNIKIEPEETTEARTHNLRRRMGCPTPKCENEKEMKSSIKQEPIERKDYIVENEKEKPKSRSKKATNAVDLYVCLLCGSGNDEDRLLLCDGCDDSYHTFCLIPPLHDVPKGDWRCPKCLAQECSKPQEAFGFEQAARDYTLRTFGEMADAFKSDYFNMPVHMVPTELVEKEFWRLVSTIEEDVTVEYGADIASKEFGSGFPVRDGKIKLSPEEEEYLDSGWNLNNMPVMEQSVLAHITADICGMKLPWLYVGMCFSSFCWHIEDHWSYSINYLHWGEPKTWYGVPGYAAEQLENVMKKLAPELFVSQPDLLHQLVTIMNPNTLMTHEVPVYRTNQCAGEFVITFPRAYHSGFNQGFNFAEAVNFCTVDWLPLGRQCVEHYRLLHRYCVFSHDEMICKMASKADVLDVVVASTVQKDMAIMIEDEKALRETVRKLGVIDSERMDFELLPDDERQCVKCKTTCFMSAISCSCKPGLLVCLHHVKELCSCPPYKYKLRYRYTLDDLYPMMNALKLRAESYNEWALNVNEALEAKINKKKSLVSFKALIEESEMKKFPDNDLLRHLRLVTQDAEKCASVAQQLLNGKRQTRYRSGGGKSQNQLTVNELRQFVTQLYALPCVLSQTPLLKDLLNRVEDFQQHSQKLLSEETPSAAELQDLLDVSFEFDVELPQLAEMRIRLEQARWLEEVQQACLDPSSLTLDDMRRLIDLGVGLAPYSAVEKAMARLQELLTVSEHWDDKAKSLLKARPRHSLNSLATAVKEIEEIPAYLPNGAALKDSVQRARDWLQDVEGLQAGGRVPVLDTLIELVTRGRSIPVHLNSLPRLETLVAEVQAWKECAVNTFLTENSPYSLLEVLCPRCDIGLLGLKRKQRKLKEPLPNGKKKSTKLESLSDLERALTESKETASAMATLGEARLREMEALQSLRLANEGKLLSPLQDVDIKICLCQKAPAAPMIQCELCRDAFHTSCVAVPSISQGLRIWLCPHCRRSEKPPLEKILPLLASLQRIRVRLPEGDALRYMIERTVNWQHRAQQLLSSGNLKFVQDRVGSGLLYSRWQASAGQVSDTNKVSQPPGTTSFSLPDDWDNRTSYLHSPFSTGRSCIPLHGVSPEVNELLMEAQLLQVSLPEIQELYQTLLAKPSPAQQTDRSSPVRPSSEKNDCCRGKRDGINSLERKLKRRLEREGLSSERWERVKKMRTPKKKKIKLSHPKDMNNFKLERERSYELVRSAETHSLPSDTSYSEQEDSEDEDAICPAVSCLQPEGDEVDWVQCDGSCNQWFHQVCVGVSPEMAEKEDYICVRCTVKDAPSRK

SMILES | activity change, negative = inhibition | Potency
CCOC(=O)c1cccc(NC(=O)c2ccc(-n3cnc(NC(=O)C(C)C)c3)cc2)c1 | inactive: -9.46% | –
CC1(C)Cc2c(c(N3CCOCC3)nc3sc4c(NCCN)ncnc4c23)CO1 | – | inconclusive: 25.1 µM [inhibitor, partial curve, poor fit]
Nn1cnnc1N/N=C/c1ccc(Cl)cc1Cl | – | inconclusive: 25.1 µM [inhibitor, partial curve, poor fit]
Cc1ccc2c(C(=O)Nc3ccc(Cl)nc3)cnn2c1 | – | active: 39.8 µM
CC(NC(=O)c1n[nH]c(=O)c2ccccc12)c1ccc2ccccc2c1 (configuration not stated) | inactive: 10.1% | –
CCN1CCN(CCNC(=O)c2cccc3c2CCN3C(=O)Nc2ccc(C)cc2)CC1 | inactive: -20.3% | –
c1cc(-c2ccsc2)n2nc(C3CCCO3)nc2n1 (configuration not stated) | – | active: 25.1 µM
O=C(CN1CCN(Cc2ccccc2)CC1)NC(c1ccccc1)c1ccccc1 | – | inconclusive: 3.16 µM [inhibitor, full curve, poor fit]
COc1cccc(-n2cc(C(=O)NCc3ccccc3OC)c3ccccc3c2=O)c1 | – | inconclusive: 35.5 µM [inhibitor, single point]
O=C(NCc1cccc(Br)c1)c1noc(-c2ccc(F)cc2)n1 | inactive: 19.3% | –
COc1cccc(N2CC3(COCC2=O)CN(c2ccc(C(F)(F)F)cn2)C3)c1 | – | inconclusive: 31.6 µM [inhibitor, single point]
COc1ccc(Nc2nc(-c3ccc(F)cc3F)cs2)cc1 | – | inconclusive: 12.6 µM [inhibitor, partial curve, poor fit]
Cn1nc(C(=O)N2CCC3(CCCN(C4CCOCC4)C3=O)C2)ccc1=O (configuration not stated) | – | inconclusive: 31.6 µM [inhibitor, single point]
CN(C)c1ccc(CN2CCC(c3nc4ncccc4[nH]3)C2)cc1 (configuration not stated) | – | inconclusive: 28.2 µM [inhibitor, partial curve, poor fit]
Cc1nn(-c2ccc(F)cc2)c2nc(C3CC3)c(Cl)c(C(=O)O)c12 | – | inconclusive: 35.5 µM [inhibitor, single point]
O=C(O)CSc1ccc(F)c(F)c1 | inactive: 2.73% | –
COc1ccc(C(=O)N2CCN(Cc3ccccn3)CC2)cc1 | – | inconclusive: 10 µM [inhibitor, partial curve, poor fit]
COc1ccc(C(=O)Nc2ccc3oc(-c4ccc(F)cc4)nc3c2)cc1OC | – | inconclusive: 28.2 µM [inhibitor, partial curve, poor fit]
Cc1cc(OCC(=O)NCc2ccncc2)c2c(C)cc(=O)oc2c1 | – | inconclusive: 22.4 µM [inhibitor, partial curve, poor fit]
CCOC(=O)c1[nH]c(C)c(/C(O)=C2\C(=O)C(=O)N(CCCN3CCOCC3)C2c2cccs2)c1C (configuration not stated) | – | inconclusive: 39.8 µM [inhibitor, single point]
Cc1cccc(-n2nc(-c3c(C)nc4scc(CC(=O)NC(C)C(C)C)n4c3=O)cc2C)c1C (configuration not stated) | – | inconclusive: 28.2 µM [inhibitor, partial curve, poor fit]

SMILES | activity change, negative = inhibition | Potency
O=C(CCn1c(=O)c2cccn2c2ccc(F)cc21)NCCc1ccccc1 | – | inconclusive: 14.1 µM [inhibitor, partial curve, poor fit]
Cc1ccc(NC(=O)CCNc2c(C)nc3cnccn23)c(F)c1 | – | active: 25.1 µM
Cc1ccccc1CNC(=O)c1ccc2c(c1)N(C)C1CCCN1C2=O (configuration not stated) | – | inconclusive: 25.1 µM [inhibitor, partial curve, poor fit]
Cc1cccc(OCCN(C)C(=O)COc2ccc3c(C)cc(=O)oc3c2)c1 | – | inconclusive: 25.1 µM [inhibitor, partial curve, poor fit]
CCCNC(=O)NCC1Cn2cccc2CN1Cc1ccccc1 (configuration not stated) | – | inconclusive: 28.2 µM [inhibitor, partial curve, poor fit]
O=C(Cn1ccn2nc(-c3ccc(F)cc3)c(CO)c2c1=O)Nc1ccc(C(F)(F)F)cc1 | – | inconclusive: 39.8 µM [inhibitor, single point]
Cc1ccc(Nc2nc(N)c(C(=O)c3cc(C)ccc3C)s2)cc1 | inactive: -6.5% | –
Cc1noc2nc(C(C)C)cc(C(=O)NC3CCCc4c3[nH]c3ccccc43)c12 (configuration not stated) | – | inconclusive: 7.94 µM [inhibitor, full curve, poor fit]
Cc1c(NC(=O)c2ccc(Cl)cc2)cc(C(C)C)c(O)c1S(=O)(=O)c1ccc(Cl)cc1 | – | inconclusive: 17.8 µM [inhibitor, single point]
C/C(=C\C(=O)c1ccccc1)C(=O)c1ccc(Br)cc1 | – | inconclusive: 17.8 µM [inhibitor, partial curve, poor fit]
Cn1nc(C2CCCN2)c2c(C(=O)NCc3ccncc3)cc(C3CC3)nc21 (configuration not stated) | – | active: 79.4 µM
O=C(c1cccs1)N1CCC(N2C(=O)C3(CCCCC3)C2c2ccncc2)CC1 (configuration not stated) | inactive: 2.16% | –
Cc1ccc(Nc2c(-c3cc(Br)ccc3F)nc3cc(C)ccn23)cc1 | – | inconclusive: 25.1 µM [inhibitor, partial curve, poor fit]
O=S(=O)(NCCN1CCOCC1)c1ccc(F)c(Cl)c1 | – | inconclusive: 20 µM [inhibitor, partial curve, poor fit]
CC(C)C(CNC(=O)c1cc(=O)c2ccccc2o1)N1CCOCC1 (configuration not stated) | inactive: 11.9% | –
Cc1ccc(CNC(=O)c2nccnc2N)cc1 | – | inconclusive: 28.2 µM [inhibitor, partial curve, poor fit]
COc1ccc(CNC(=O)C23CCC(=O)N2CCS3)cc1 (configuration not stated) | inactive: 4.55% | –
Cc1ccc(N(C(=O)COc2ccccc2C)S(=O)(=O)c2ccc(Cl)cc2)cc1 | inconclusive: -33% [inhibitor] | –
O=C(Nc1cccc(C(F)(F)F)c1)c1nc2c(o1)CCN(Cc1cccs1)CC2 | – | active: 31.6 µM
COc1cc(OC)cc(C(=O)Oc2cccc3ccc(C)nc23)c1 | – | inconclusive: 17.8 µM [inhibitor, partial curve, poor fit]
FC(F)(F)c1ccc(N2C3CCC2CN(Cc2cccs2)C3)cc1 | – | inconclusive: 56.2 µM [inhibitor, partial curve, poor fit]
